Measurements as given in the supplement of paper PMC12217912.
The other results are listed elsewhere or left out. Sequences were assembled here from the parent chain. Inactive controls read about 0.05.

B1: TEV protease; numbered along this chain (parent)
chain: MGESLFKGPRDYNPISSSICHLTNESDGHTTSLYGIGFGPFIITNKHLFRRNNGTLVVQSLHGVFKVKDTTTLQQHLVDGRDMIIIRMPKDFPPFPQKLKFREPQREERICLVTTNFQTKSMSSMVSDTSCTFPSGDGIFWKHWIQTKDGQCGSPLVSTRDGFIVGIHSASNFTNTNNYFTSVPKNFMELLTNQEAQQWVSGWRLNADSVLWGGHKVFMVKPEEPFQPVKEATQL

Variants of: B1
Test: raw area under fraction-flipped curve 0-4 h after induction (AUC4h, not background-subtracted), DNA-recorder readout of cleavage of the substrate (dimensionless); higher = more cleavage of the substrate by the protease variant
Details: temperature: 34 °C; time window: 0-4 h after rhamnose induction
Protocol: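 In vivo DNA recorder in E. coli TOP10(DE3) ΔrhaA at 34 °C. Each TEVp single-site mutant (parent TEVp 0) is paired with a single-site variant of the 7-mer TEVs (canonical ENLYFQ|S). The substrate sits between flexible linkers in a Bxb1-sfGFP-TEVs-SsrA fusion, so cleavage stabilises Bxb1 and speeds flipping of a recombination array, read by NGS. The value is the raw area under the fraction-flipped curve over 0-4 h after rhamnose induction (AUC4h), with ≥20 reads per time point. It is not background-subtracted; inactive controls average about 0.047.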
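Further: Bxb1 expression induced with 0.2% (w/v) L-rhamnose at OD600 near 0.5, cultures sampled hourly, flipped fraction per protease–substrate barcode pair counted by paired-end Illumina sequencing.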

Variant	area with substrate ENLYCQS	area with substrate ENLYEQS	area with substrate ENLYGQS	area with substrate ENLYHQS	area with substrate ENLYIQS	area with substrate ENLYMQS	area with substrate ENLYNQS	area with substrate ENLYQQS	area with substrate ENLYWQS	area with substrate ENLYDQS	area with substrate ENLYKQS	area with substrate ENLYLQS	area with substrate ENLYVQS	area with substrate ENLYRQS	area with substrate ENLYYQS	area with substrate ENLYTQS	area with substrate ENLYPQS	area with substrate ENLYSQS
P94Y	0.0678	0.0657	0.0649	0.0621	0.124	0.0821	0.0707	0.0583	0.0742	–	–	–	–	–	–	–	–	–
S121Y	–	0.0718	0.069	0.0788	0.101	0.0781	–	0.0509	0.0753	0.0623	0.0495	0.0822	0.125	–	–	–	–	–
W212M	–	0.0679	0.0757	0.0759	0.103	0.0939	0.0775	–	0.122	0.0739	–	0.0858	–	0.0719	0.096	–	–	–
G214K	0.0801	0.0708	0.077	–	0.108	0.0664	0.0638	0.0543	0.0621	–	0.0513	–	0.117	0.0576	–	0.074	–	–
Q227E	–	0.0845	0.078	–	0.144	0.106	0.0701	0.0701	0.0809	0.0674	0.0552	–	–	–	0.0588	0.0787	0.0655	0.0516
I110H	–	0.0598	0.0549	–	0.0507	0.0519	0.0621	0.0376	0.053	0.0517	0.0489	–	0.0407	–	–	–	0.052	0.0642
K66F	–	0.0708	0.0664	0.0946	0.123	0.0969	0.0645	0.0661	0.0819	0.0607	0.0446	–	–	0.0527	0.0697	0.0609	–	0.0798
I164E	–	0.0505	0.0805	0.0574	0.042	0.0508	0.056	0.0425	–	0.0475	0.0492	0.0531	–	0.0652	0.0255	0.0555	0.0441	0.0578
S4K	0.117	0.0619	–	0.0606	0.144	–	0.0622	0.0836	0.117	0.0238	–	0.0599	0.155	0.0702	0.0654	–	0.0795	0.0781
T72P	–	0.0542	–	0.071	0.0881	–	0.05	0.042	0.0679	0.0491	0.0527	0.054	0.0815	0.0595	–	0.0633	0.0481	–
Q151S	0.0914	–	0.113	0.0543	0.13	–	0.0726	0.1	–	–	0.0301	–	0.126	0.057	–	0.0715	0.0708	–
Y12P	0.0861	0.0685	0.0623	–	0.108	0.09	0.0766	–	0.0843	0.0579	0.0234	0.0961	0.105	–	0.0621	0.0787	0.067	0.0701
G162H	0.0589	0.0643	0.0612	0.0632	0.109	0.0747	0.0677	0.0371	0.0732	0.0502	0.0595	0.0672	0.103	–	0.0549	–	–	–
P222G	0.102	0.067	–	0.0669	0.105	0.0708	0.0593	0.0728	–	–	0.05	0.0716	0.0863	0.0414	–	0.0927	–	–
K185P	–	0.0606	–	0.0147	–	0.0789	–	–	–	0.0619	0.0317	–	–	–	–	0.0779	0.0268	0.0698
R50L	–	–	0.0698	0.0647	0.147	0.0673	0.0619	0.0599	0.102	0.0661	0.0722	–	0.0753	0.0467	0.0792	0.0968	0.065	0.0857
S135D	–	0.102	–	0.0582	–	–	–	0.0643	0.0729	0.0715	–	0.0714	–	0.0572	0.0676	–	0.0621	0.0691
D11R	–	0.0671	0.0861	0.0794	0.135	0.0762	0.0708	0.0627	–	0.0644	0.0663	–	0.11	0.0521	0.0645	0.0899	0.115	0.0778
D69Q	–	0.0641	0.0708	0.057	0.0869	0.0828	0.0637	–	0.0786	0.0621	0.0645	–	0.0928	0.0683	0.0611	–	0.0694	–
L33V	0.0956	0.0614	0.0719	0.0676	–	0.0853	0.0635	–	0.0524	0.0571	0.0674	0.0712	–	0.0635	–	–	0.0602	0.0701
Q146N	0.0863	0.0448	–	0.0643	–	0.0854	0.0663	–	–	0.0565	0.0652	0.0805	–	–	–	0.0779	0.0792	–
I86F	–	–	0.0641	0.065	–	0.0734	0.0477	0.0506	0.0711	0.0611	0.0704	–	0.115	0.0671	–	–	0.0841	0.0614
T132F	0.0526	0.0575	–	–	0.0742	–	0.0395	0.0591	–	0.0575	0.0495	0.0529	0.0512	0.0491	0.048	0.0573	0.057	0.0499
N24K	–	0.0402	0.0683	0.0582	0.0932	–	0.0629	0.0589	0.061	0.0682	0.0539	–	0.0202	0.066	0.0638	–	0.0722	0.0664
G153Y	0.0402	0.0342	–	–	0.0568	0.046	0.0686	0.0547	0.0272	0.0413	0.0691	–	–	–	–	–	0.0271	–
D79G	–	0.0705	0.0649	–	–	0.0731	0.0787	0.0552	0.0748	0.0612	0.0644	–	0.0939	0.053	0.0558	0.06	0.0682	0.0712
E108Y	–	0.0517	–	0.0587	0.0629	0.0549	0.055	0.0703	0.0551	0.0574	0.0552	–	0.0737	0.0548	–	0.0372	–	0.0483
G2Q	–	0.0749	0.0666	0.0738	0.123	–	0.062	–	0.0629	0.0603	0.0693	0.0785	0.126	0.07	–	0.0937	0.0763	0.0738
